Test results: PubChem BioAssay AID1508642 (National Center for Advancing Translational Sciences (NCATS), 2021)
Among all 43,000 compounds or so, about 200 (0.47%) were called active. Another 12% or so got no clear call; they are omitted. The call rests on the fitted dose curve; in most records, active means well fitted cell-killing curve with a large enough effect; inconclusive means small, poorly fitted or top-dose-only effect, or effect the other way; inactive means flat fitted curve, though single readings scatter. This is one part of the list.
On the % scale 0 is the no-effect control and ±100 the full control effect.

Assay: Cell viability qHTS assay in S16 Pmp22-F2sN cells; further: nearly all actives have a fitted effect of over 65% in size
Settings: S16 Pmp22-F2sN Schwann cells viability, CellTiter-Glo, 24 h; series mostly up to 57.5 µM; activity change, negative = cytotoxicity: at the top concentration
In short: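 Viability was measured by CellTiter-Glo luminescence (15 min, room temperature). This followed 24 h at 37 °C of compound exposure (23 nL pin transfer) in S16 Pmp22-F2sN Schwann cells, 500-1,000 per well.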
With `Cc1ccc(C)c(CN2C(=O)c3ccccc3S(=O)c3ccc(C(=O)N4CCCCC4)cc32)c1` (stereo not drawn) the “activity change, negative = cytotoxicity” value was inactive: 3.4%. With `Cc1cccc(C)c1NC(=O)Cn1cc(C(=O)C2CC2)c2ccccc21` the “activity change, negative = cytotoxicity” value was inactive: -12.8%. With `Cc1nn(CCC(=O)Nc2cccc(C#N)c2)c(C)c1S(=O)(=O)N1CCCCC1` the “activity change, negative = cytotoxicity” value was inactive: -16.9%. In the case of `COc1cccc(C(=O)Nc2nnc(S(=O)(=O)N3CCCc4ccccc43)s2)c1`, the “activity change, negative = cytotoxicity” value is reported as inactive: 4.07%. With `CCCCN(CC)CCCNC(=O)c1cn(C)c(=O)c2c1c1ccccc1n2C` the “activity change, negative = cytotoxicity” value was inactive: 4.89%. For `Cc1ccccc1NC(=O)CN1C(=O)C(C)(C)c2ccccc21`, the “activity change, negative = cytotoxicity” value was inactive: 8.68%. With `COc1cccc(NC(=O)c2cc3c(=O)n(C)c4ccccc4c3n2C)c1` the “activity change, negative = cytotoxicity” value was inactive: 15.4%. With `CCOc1ccc(S(=O)(=O)N(CC(=O)NCCc2ccc(OC)c(OC)c2)c2ccccc2)cc1` the “activity change, negative = cytotoxicity” value was inactive: 24.7%. In the case of `COc1ccc(NC(=O)CN2C(=O)CSc3ccc(S(=O)(=O)N4CCCC4)cc32)cc1OC`, the “activity change, negative = cytotoxicity” value is reported as inactive: 8.09%. For `COc1ccc(OC)c(CCNC(=O)c2c(C)oc3ncn(C)c(=O)c23)c1`, the “activity change, negative = cytotoxicity” value was inactive: 1.57%. For `Cc1cccc(C)c1NC(=O)Cn1c(=O)n(CCC(=O)NCc2ccccc2Cl)c(=O)c2sccc21`, the “activity change, negative = cytotoxicity” value was inactive: 2.68%. For `CCOc1ccc(CN2CCN(c3ncnc4sc5c(c34)CC(C)CC5)CC2)cc1` (stereo not drawn), the “activity change, negative = cytotoxicity” value was inactive: -11.4%. For `COc1ccccc1C(=O)Nc1nnc(S(=O)(=O)N(C)c2ccc(Cl)cc2)s1`, the “activity change, negative = cytotoxicity” value was inactive: -1.49%. With `CCc1ccc(S(=O)(=O)c2cn(CC)c3cc(N4CCOCC4)c(F)cc3c2=O)cc1` the “activity change, negative = cytotoxicity” value was inactive: -28.4%. With `CC(=O)c1ccc(NC(=O)Cn2cc3c(n2)CCCC3)cc1` the “activity change, negative = cytotoxicity” value was inactive: -12.2%. In the case of `Cc1nc(-c2ccccc2)sc1CCNS(=O)(=O)c1ccccc1`, the “activity change, negative = cytotoxicity” value is reported as inactive: -2.52%. In the case of `CCOc1ccc2c(c1)c(=O)c(S(=O)(=O)c1ccccc1)cn2CC(=O)Nc1ccccc1OC`, the “activity change, negative = cytotoxicity” value is reported as inactive: 7.34%. For `Cc1ccc(CNC(=O)C2CCN(S(=O)(=O)c3ccc4c(c3)CCCN4C(=O)C3CCC3)CC2)cc1`, the “activity change, negative = cytotoxicity” value was inactive: 0.145%. With `Cc1nn2c(=O)cc(COC(=O)CNC(=O)c3ccc(F)cc3)nc2s1` the “activity change, negative = cytotoxicity” value was inactive: -0.618%. For `COc1ccc(C2=NC(C)(C)N(CC(=O)Nc3ccc(F)c(F)c3)C2=O)cc1`, the “activity change, negative = cytotoxicity” value was inactive: -15.1%. In the case of `Cc1cccc(CNC(=O)c2cnc3sc(N4CCCCCC4)nn3c2=O)c1`, the “activity change, negative = cytotoxicity” value is reported as inactive: 3.6%. In the case of `COc1ccc(-c2nsc(NC(=O)c3oc4cc(C)c(C)cc4c3C)n2)cc1`, the “activity change, negative = cytotoxicity” value is reported as inactive: 3.53%. For `Cc1ccc(N(Cc2cccs2)C(=O)COc2cccc(C)c2)cc1`, the “activity change, negative = cytotoxicity” value was inactive: -4.13%. In the case of `CC(=O)c1ccc(NC(=O)Cn2c(=O)n(Cc3ccco3)c(=O)c3sc4ccccc4c32)cc1`, the “activity change, negative = cytotoxicity” value is reported as inactive: -1.52%. For `Cc1ccc(NC(=O)c2c(C)nc3sc(C(=O)Nc4ccc(F)cc4)c(N)c3c2-c2ccccc2Cl)c(C)c1`, the “activity change, negative = cytotoxicity” value was inactive: 0.318%. With `COc1cccc(OC)c1C(=O)Nc1ccc(S(=O)(=O)Nc2nccc(C)n2)cc1` the “activity change, negative = cytotoxicity” value was inactive: -1.72%. For `CCOc1ccc(CCNC(=O)CSc2cc(=O)n(C)c3ccc(Cl)cc23)cc1OCC`, the “activity change, negative = cytotoxicity” value was inactive: -0.312%. In the case of `COc1ccccc1NS(=O)(=O)c1cc2c(cc1Cl)NC(=O)CO2`, the “activity change, negative = cytotoxicity” value is reported as inactive: -20.9%. For `Cc1cccc(N2CCN(C(=O)CCSCc3ccccc3F)CC2)c1C`, the “activity change, negative = cytotoxicity” value was inactive: -11.9%. In the case of `COc1ccccc1N1CCN(C(=O)Cn2ncc3c(=O)oc4ccc(C)cc4c32)CC1`, the “activity change, negative = cytotoxicity” value is reported as inactive: 13%. In the case of `CN(C)S(=O)(=O)c1ccc(C(=O)Nc2ccc(-n3nncc3-c3ccccc3)cc2)cc1`, the “activity change, negative = cytotoxicity” value is reported as inactive: -16.1%. With `CCCc1cnc2c(c1SCc1ccc(C(F)(F)F)cc1)c(=O)n(C)c(=O)n2C` the “activity change, negative = cytotoxicity” value was inactive: -1.75%. For `CC(C)Oc1ccc(CNC(=O)c2ccc(Cn3c(=O)c4cccn4c4cccnc43)cc2)cc1`, the “activity change, negative = cytotoxicity” value was inactive: 7.65%. In the case of `CCN1C(=O)C2(c3ccccc31)c1c(oc3ccc(F)cc3c1=O)C(=O)N2CCCOC` (stereo not drawn), the “activity change, negative = cytotoxicity” value is reported as inactive: 3.68%. For `Cc1ccc(NC(=O)CSc2ccc(-c3sc(-c4ccccc4)nc3C)nn2)cc1F`, the “activity change, negative = cytotoxicity” value was inactive: 13.2%. For `CCSc1nn(CC(=O)Nc2cccc(Cl)c2)c(N)c1S(=O)(=O)c1ccc(OC)cc1`, the “activity change, negative = cytotoxicity” value was inactive: -26.3%. For `COc1cccc(CN(C(=O)c2cccc(C)c2)C2CCS(=O)(=O)C2)c1` (stereo not drawn), the “activity change, negative = cytotoxicity” value was inactive: -0.074%. In the case of `COc1ccc(OC)c(-c2noc(N3CCN(c4cccc(C)c4C)CC3)n2)c1`, the “activity change, negative = cytotoxicity” value is reported as inactive: 15.2%. With `Cc1ccc(-n2nc3c(=O)n(CCCC(=O)NC(C)c4ccccc4)nc(C)c3c2C)cc1` (stereo not drawn) the “activity change, negative = cytotoxicity” value was inactive: 7.35%. For `CC(C)CC(=O)Nc1nnc(S(=O)(=O)N2CCc3ccccc32)s1`, the “activity change, negative = cytotoxicity” value was inactive: 3.23%. For `Cc1ccc2oc(C(=O)Nc3sc4c(c3C(=O)NCc3cccnc3)CCCC4)cc(=O)c2c1`, the “activity change, negative = cytotoxicity” value was inactive: -21.8%. For `CCCN(CCC)C(=O)Cn1c(=O)n(Cc2ccc(C(=O)NCCc3ccc(Cl)cc3)cc2)c(=O)c2ccccc21`, the “activity change, negative = cytotoxicity” value was inactive: 15.1%. For `COc1ccccc1Cn1cc(C(=O)c2ccc(C)cc2)c(=O)c2cc(F)cc(F)c21`, the “activity change, negative = cytotoxicity” value was inactive: -3.9%. In the case of `CCc1ccc(NC(=O)Cn2c(=O)n(-c3cc(C)cc(C)c3)c(=O)c3oc4ccccc4c32)cc1`, the “activity change, negative = cytotoxicity” value is reported as inactive: 4.44%. In the case of `COC(=O)c1ccccc1NC(=O)C1=C(C)C(=O)OC12CCC(C)CC2` (stereo not drawn), the “activity change, negative = cytotoxicity” value is reported as inactive: 3.49%. In the case of `Cc1ccc(CSc2oc(-c3cccs3)nc2S(=O)(=O)c2ccc(C)cc2)cc1`, the “activity change, negative = cytotoxicity” value is reported as inactive: 17.9%. With `CCCNC(=O)c1cnc2c(-c3ccc(OCC)c(OCC)c3)c(C)nn2c1-c1ccccc1` the “activity change, negative = cytotoxicity” value was inactive: 4.01%. With `COc1cc(NC(=O)CC(c2cccs2)N2Cc3ccccc3C2=O)cc(OC)c1OC` (stereo not drawn) the “activity change, negative = cytotoxicity” value was inactive: 0.42%.
